T1: RBFOX1 RRM RbFoxmut (Fox-RRM*) (Homo sapiens, UniProt Q9NWB1 109-208, R118D;E147R;N151S;E152T)
T1 sequence: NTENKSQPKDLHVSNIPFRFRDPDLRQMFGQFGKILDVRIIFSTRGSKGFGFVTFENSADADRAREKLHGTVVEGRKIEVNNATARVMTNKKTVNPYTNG

B1: GUUUAUG (DNA:RNA)
RNA: GGGAGACCGGAAUUCAGAUUGUCCGUUUAUGUUAAAUCCCGUCGUAGCCACCA
DNA 1: CAATCTGAATTCCGGTCTCCC
DNA 2: TGGTGGCTACGACGGGATT
B2: AGCUACC (DNA:RNA)
RNA: B1 RNA with G25A, U26G, U27C, U30C, G31C
DNA 1: CAATCTGAATTCCGGTCTCCC
DNA 2: TGGTGGCTACGACGGGATT
B3: GGACGUU (DNA:RNA)
RNA: B1 RNA with U26G, U27A, U28C, A29G, G31U
DNA 1: CAATCTGAATTCCGGTCTCCC
DNA 2: TGGTGGCTACGACGGGATT
B4: GCGUCCG (DNA:RNA)
RNA: B1 RNA with U26C, U27G, A29C, U30C
DNA 1: CAATCTGAATTCCGGTCTCCC
DNA 2: TGGTGGCTACGACGGGATT
B5: AGUAGAA (DNA:RNA)
RNA: B1 RNA with G25A, U26G, U28A, A29G, U30A, G31A
DNA 1: CAATCTGAATTCCGGTCTCCC
DNA 2: TGGTGGCTACGACGGGATT
B6: UUCUCAG (DNA:RNA)
RNA: B1 RNA with G25U, U27C, A29C, U30A
DNA 1: CAATCTGAATTCCGGTCTCCC
DNA 2: TGGTGGCTACGACGGGATT
B7: UCGUGGU (DNA:RNA)
RNA: B1 RNA with G25U, U26C, U27G, A29G, U30G, G31U
DNA 1: CAATCTGAATTCCGGTCTCCC
DNA 2: TGGTGGCTACGACGGGATT
B8: AUCUGGC (DNA:RNA)
RNA: B1 RNA with G25A, U27C, A29G, U30G, G31C
DNA 1: CAATCTGAATTCCGGTCTCCC
DNA 2: TGGTGGCTACGACGGGATT
B9: GAAGGUA (DNA:RNA)
RNA: B1 RNA with U26A, U27A, U28G, A29G, G31A
DNA 1: CAATCTGAATTCCGGTCTCCC
DNA 2: TGGTGGCTACGACGGGATT
B10: UACACUC (DNA:RNA)
RNA: B1 RNA with G25U, U26A, U27C, U28A, A29C, G31C
DNA 1: CAATCTGAATTCCGGTCTCCC
DNA 2: TGGTGGCTACGACGGGATT
B11: CACCUCU (DNA:RNA)
RNA: GGGAGACCGGAAUUCAGAUUGUCCCACCUCUUUAAAUCCCGUCGUAGCCACCA
DNA 1: CAATCTGAATTCCGGTCTCCC
DNA 2: TGGTGGCTACGACGGGATT
B12: CUGUACA (DNA:RNA)
RNA: B1 RNA with G25C, U27G, U30C, G31A
DNA 1: CAATCTGAATTCCGGTCTCCC
DNA 2: TGGTGGCTACGACGGGATT
B13: GCGUGUG (DNA:RNA)
RNA: B1 RNA with U26C, U27G, A29G
DNA 1: CAATCTGAATTCCGGTCTCCC
DNA 2: TGGTGGCTACGACGGGATT
B14: UAGCUUA (DNA:RNA)
RNA: B11 RNA with C25U, C27G, C30U, U31A
DNA 1: CAATCTGAATTCCGGTCTCCC
DNA 2: TGGTGGCTACGACGGGATT
B15: UUAGGAG (DNA:RNA)
RNA: B1 RNA with G25U, U27A, U28G, A29G, U30A
DNA 1: CAATCTGAATTCCGGTCTCCC
DNA 2: TGGTGGCTACGACGGGATT
B16: UUCAAUU (DNA:RNA)
RNA: B1 RNA with G25U, U27C, U28A, G31U
DNA 1: CAATCTGAATTCCGGTCTCCC
DNA 2: TGGTGGCTACGACGGGATT
B17: UAUGUUU (DNA:RNA)
RNA: B11 RNA with C25U, C27U, C28G, C30U
DNA 1: CAATCTGAATTCCGGTCTCCC
DNA 2: TGGTGGCTACGACGGGATT
B18: CCAUUGA (DNA:RNA)
RNA: B11 RNA with A26C, C27A, C28U, C30G, U31A
DNA 1: CAATCTGAATTCCGGTCTCCC
DNA 2: TGGTGGCTACGACGGGATT
B19: AAGUAAA (DNA:RNA)
RNA: B1 RNA with G25A, U26A, U27G, U30A, G31A
DNA 1: CAATCTGAATTCCGGTCTCCC
DNA 2: TGGTGGCTACGACGGGATT
B20: GUAGGAA (DNA:RNA)
RNA: B1 RNA with U27A, U28G, A29G, U30A, G31A
DNA 1: CAATCTGAATTCCGGTCTCCC
DNA 2: TGGTGGCTACGACGGGATT
B21: UCUGGGG (DNA:RNA)
RNA: B1 RNA with G25U, U26C, U28G, A29G, U30G
DNA 1: CAATCTGAATTCCGGTCTCCC
DNA 2: TGGTGGCTACGACGGGATT
B22: CCCUAUA (DNA:RNA)
RNA: B1 RNA with G25C, U26C, U27C, G31A
DNA 1: CAATCTGAATTCCGGTCTCCC
DNA 2: TGGTGGCTACGACGGGATT
B23: AUACUCC (DNA:RNA)
RNA: B11 RNA with C25A, A26U, C27A, U31C
DNA 1: CAATCTGAATTCCGGTCTCCC
DNA 2: TGGTGGCTACGACGGGATT
B24: CCAACAA (DNA:RNA)
RNA: B11 RNA with A26C, C27A, C28A, U29C, C30A, U31A
DNA 1: CAATCTGAATTCCGGTCTCCC
DNA 2: TGGTGGCTACGACGGGATT
B25: AGAGACU (DNA:RNA)
RNA: B11 RNA with C25A, A26G, C27A, C28G, U29A
DNA 1: CAATCTGAATTCCGGTCTCCC
DNA 2: TGGTGGCTACGACGGGATT
B26: GACUACC (DNA:RNA)
RNA: B11 RNA with C25G, C28U, U29A, U31C
DNA 1: CAATCTGAATTCCGGTCTCCC
DNA 2: TGGTGGCTACGACGGGATT
B27: CAGAUUC (DNA:RNA)
RNA: B11 RNA with C27G, C28A, C30U, U31C
DNA 1: CAATCTGAATTCCGGTCTCCC
DNA 2: TGGTGGCTACGACGGGATT
B28: CACUCUU (DNA:RNA)
RNA: B11 RNA with C28U, U29C, C30U
DNA 1: CAATCTGAATTCCGGTCTCCC
DNA 2: TGGTGGCTACGACGGGATT
B29: AGGGCGC (DNA:RNA)
RNA: GGGAGACCGGAAUUCAGAUUGUCCAGGGCGCUUAAAUCCCGUCGUAGCCACCA
DNA 1: CAATCTGAATTCCGGTCTCCC
DNA 2: TGGTGGCTACGACGGGATT
B30: CCGCCGC (DNA:RNA)
RNA: B29 RNA with A25C, G26C, G28C
DNA 1: CAATCTGAATTCCGGTCTCCC
DNA 2: TGGTGGCTACGACGGGATT
B31: GUGAGUU (DNA:RNA)
RNA: B1 RNA with U27G, U28A, A29G, G31U
DNA 1: CAATCTGAATTCCGGTCTCCC
DNA 2: TGGTGGCTACGACGGGATT

Where a chain is given by its changes, count along the chain named. The list shows a part of the results.

The values that follow come from article PMC9911399, “Two distinct binding modes provide the RNA-binding protein RbFox with extraordinary sequence specificity”.

The target of the experiment is T1, RBFOX1 RRM RbFoxmut (Fox-RRM*). In words: EMSA; HiTS-Eq, 1 nM pool, 10 min; buffer printed only for the single-RNA assays: 10 mM Tris pH 7.5, 150 mM NaCl, 3.4 mM EDTA, 0.001% NP-40, 30 C. The settings on record: tags: His6 N-terminal (pET28a); label: 5' 32P. In outline: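 A pool of RNA with 7 randomized nucleotides, 5′-radiolabelled and with DNA-annealed flanks, was equilibrated at 1 nM for 10 min in 50 µL with purified RbFox RRM, wild type or mutant, across increasing protein concentrations. Free RNA was separated by 8% native PAGE, excised, reverse-transcribed, barcoded by PCR and sequenced. Relative association constants were obtained from read-count changes of each RNA species versus the control reaction and normalised to the cognate motif.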
For B1, the binding signal is 0.172 KA relative to UGCAUGU.
The same measure for B2: 0.082 KA relative to UGCAUGU.
The same measure for B3: 0.0995 KA relative to UGCAUGU; for B4: 0.135 KA relative to UGCAUGU; for B5: 0.135 KA relative to UGCAUGU.
The same measure for B6: 0.0887 KA relative to UGCAUGU; for B7: 0.137 KA relative to UGCAUGU; for B8: 0.104 KA relative to UGCAUGU.
Regarding B9, the binding signal was 0.112 KA relative to UGCAUGU.
With B10, the binding signal is 0.0474 KA relative to UGCAUGU.
The same measure for B11: 0.0757 KA relative to UGCAUGU; for B12: 0.0779 KA relative to UGCAUGU.
As for B13, the binding signal was 0.236 KA relative to UGCAUGU.
The same measure for B14: 0.134 KA relative to UGCAUGU; for B15: 0.129 KA relative to UGCAUGU; for B16: 0.0592 KA relative to UGCAUGU.
For B17 the value was 0.134 KA relative to UGCAUGU.
For B18 the value was 0.124 KA relative to UGCAUGU; for B19, 0.124 KA relative to UGCAUGU; for B20, 0.0961 KA relative to UGCAUGU.
Take B21: the binding signal was 0.0593 KA relative to UGCAUGU.
For B22 the value was 0.108 KA relative to UGCAUGU; for B23, 0.0666 KA relative to UGCAUGU; for B24, 0.0481 KA relative to UGCAUGU.
Consider B25, for which the binding signal is 0.0725 KA relative to UGCAUGU.
Turning to B26, the binding signal is 0.0415 KA relative to UGCAUGU.
For B27 the value was 0.115 KA relative to UGCAUGU; for B28, 0.0754 KA relative to UGCAUGU; for B29, 0.0987 KA relative to UGCAUGU.
With B30, the binding signal was 0.075 KA relative to UGCAUGU.
B31: the binding signal was 0.113 KA relative to UGCAUGU.
